target: Recombinant heterodimeric HCV NS3/NS4A protease (strain 1a) (Hepatitis C virus genotype 1a, UniProt P27958); test: Spectrophotometric assay for HCV protease inhibitory activity (chromogenic ester substrates); assay type: biochemical; conditions: Table 1, Ki* range class
From the text: The present invention relates to novel HCV protease inhibitors. This utility can be manifested in their ability to inhibit the HCV NS2/NS4a serine protease.
Assay for HCV Protease Inhibitory Activity:
Spectrophotometric Assay: Spectrophotometric assay for the HCV serine protease can be performed on the inventive compounds by following the procedure described by R. Zhang et al, Analytical Biochemistry, 270 (1999) 268-275, the disclosure of which is incorporated herein by reference. The assay based on the proteolysis of chromogenic ester substrates is suitable for the continuous monitoring of HCV NS3 protease activity. The substrates are derived from the P side of the NS5A-NS5B junction sequence (Ac-DTEDVVX(Nva), where X=A or P) whose C-terminal carboxyl groups are esterified with one of four different chromophoric alcohols (3- or 4-nitrophenol, 7-hydroxy-4-methyl-coumarin, or 4-phenylazophenol). Illustrated below are the synthesis, characterization and application of these novel spectrophotometric ester substrates to high throughput screening and detailed kinetic evaluation of HCV NS3 protease inhibitors.
Protein concentrations are determined by the Biorad dye method using recombinant HCV protease standards previously quantified by amino acid analysis. Prior to assay initiation, the enzyme storage buffer (50 mM sodium phosphate pH 8.0, 300 mM NaCl, 10% glycerol, 0.05% lauryl maltoside and 10 mM DTT) is exchanged for the assay buffer (25 mM MOPS pH 6.5, 300 mM NaCl, 10% glycerol, 0.05% lauryl maltoside, 5 μM EDTA and 5 μM DTT) utilizing a Biorad Bio-Spin P-6 prepacked column.
Protease Assay: HCV protease assays are performed at 30° C. using a 200 μl reaction mix in a 96-well microtiter plate. Assay buffer conditions (25 mM MOPS pH 6.5, 300 mM NaCl, 10% glycerol, 0.05% lauryl maltoside, 5 μM EDTA and 5 μM DTT) are optimized for the NS3/NS4A heterodimer (D. L. Sali et al, ibid.)). Typically, 150 μl mixtures of buffer, substrate and inhibitor are placed in wells (final concentration of DMSO≦4% v/v) and allowed to preincubate at 30° C. for approximately 3 minutes. Fifty μls of prewarmed protease (12 nM, 30° C.) in assay buffer, is then used to initiate the reaction (final volume 200 μl).The plates are monitored over the length of the assay (60 minutes) for change in absorbance at the appropriate wavelength (340 nm for 3-Np and HMC, 370 nm for PAP, and 400 nm for 4-Np) using a Spectromax Plus microtiter plate reader equipped with a monochrometer (acceptable results can be obtained with plate readers that utilize cutoff filters). Proteolytic cleavage of the ester linkage between the Nva and the chromophore is monitored at the appropriate wavelength against a no enzyme blank as a control for non-enzymatic hydrolysis. The evaluation of substrate kinetic parameters is performed over a 30-fold substrate concentration range (˜6-200 μM). Initial velocities are determined using linear regression and kinetic constants are obtained by fitting the data to the Michaelis-Menten equation using non-linear regression analysis (Mac Curve Fit 1.1, K. Raner). Turnover numbers (kcat) are calculated assuming the enzyme is fully active.
Evaluation of Inhibitors and Inactivators: The inhibition constants (Ki) for the competitive inhibitors Ac-D-(D-Gla)-L-I-(Cha)-C—OH (27), Ac-DTEDVVA(Nva)-OH and Ac-DTEDVVP(Nva)-OH are determined experimentally at fixed concentrations of enzyme and substrate by plotting vo/vi vs. inhibitor concentration ([I]o) according to the rearranged Michaelis-Menten equation for competitive inhibition kinetics: vo/vi=1+[I]o/(Ki(1+[S]o/Km)), where vo is the uninhibited initial velocity, vi is the initial velocity in the presence of inhibitor at any given inhibitor concentration ([I]o) and [S]o is the substrate concentration used.

First: C=CCNC(=O)C(=O)C(CC1CC1)NC(=O)[C@@H]1[C@@H]2[C@H](CN1C(=O)[C@@H](NC(=O)N[C@H](COC(=O)N(C)C)C(C)(C)C)C1Cc3ccccc3C1)C2(C)C (stereo partly drawn) [Example 1038]
Second: C=CCNC(=O)C(=O)C(CC1CC1)NC(=O)[C@@H]1[C@@H]2[C@H](CN1C(=O)[C@@H](NC(=O)N[C@H](COC(=O)NC)C(C)(C)C)C1Cc3ccccc3C1)C2(C)C (stereo partly drawn) [Example 1039]
The Ki of the first is higher: 0.075 to 0.25 µM for the first, under 0.075 µM for the second.

`C=CCNC(=O)C(=O)C(CCC)NC(=O)[C@@H]1[C@@H]2[C@H](CN1C(=O)[C@@H](NC(=O)N[C@H](COC(=O)NC)C(C)(C)C)C1Cc3ccccc3C1)C2(C)C` (stereo partly drawn) [Example 1040] and `C=CCNC(=O)C(=O)C(CCCC)NC(=O)[C@@H]1[C@@H]2[C@H](CN1C(=O)[C@@H](NC(=O)N[C@H](COC(=O)NC)C(C)(C)C)C1Cc3ccccc3C1)C2(C)C` (stereo partly drawn) [Example 1043] cannot be ordered by Ki: under 0.075 µM for the first, under 0.075 µM for the second.

`CNC(=O)OC[C@@H](NC(=O)N[C@H](C(=O)N1C[C@H]2[C@@H]([C@H]1C(=O)NC(CC1CC1)C(=O)C(N)=O)C2(C)C)C1Cc2ccccc2C1)C(C)(C)C` (stereo partly drawn) [Example 1041] and `CNC(=O)OC[C@@H](NC(=O)N[C@H](C(=O)N1C[C@H]2[C@@H]([C@H]1C(=O)NC(CC1CCC1)C(=O)C(N)=O)C2(C)C)C1Cc2ccccc2C1)C(C)(C)C` (stereo partly drawn) [Example 1042] cannot be ordered by Ki: under 0.075 µM for the first, under 0.075 µM for the second.

`C=CCNC(=O)C(=O)C(CCCC)NC(=O)[C@@H]1[C@@H]2[C@H](CN1C(=O)[C@@H](NC(=O)N[C@H](COC(=O)NCC)C(C)(C)C)C1Cc3ccccc3C1)C2(C)C` (stereo partly drawn) [Example 1044] and `CCCCC(NC(=O)[C@@H]1[C@@H]2[C@H](CN1C(=O)[C@@H](NC(=O)N[C@H](COC(=O)NCC)C(C)(C)C)C1Cc3ccccc3C1)C2(C)C)C(=O)C(=O)NCC` (stereo partly drawn) [Example 1071] cannot be ordered by Ki: under 0.075 µM for the first, under 0.075 µM for the second.

`C=CCNC(=O)C(=O)C(CCCC)NC(=O)[C@@H]1[C@@H]2[C@H](CN1C(=O)[C@@H](NC(=O)N[C@H](COC(=O)NC(C)C)C(C)(C)C)C1Cc3ccccc3C1)C2(C)C` (stereo partly drawn) [Example 1045] and `C#CCNC(=O)C(=O)C(CCCC)NC(=O)[C@@H]1[C@@H]2[C@H](CN1C(=O)[C@@H](NC(=O)N[C@H](COC(=O)NC(C)C)C(C)(C)C)C1Cc3ccccc3C1)C2(C)C` (stereo partly drawn) [Example 1070] cannot be ordered by Ki: under 0.075 µM for the first, under 0.075 µM for the second.

`C=CCNC(=O)C(=O)C(CCCC)NC(=O)[C@@H]1[C@@H]2[C@H](CN1C(=O)[C@@H](NC(=O)N[C@H](COC(=O)NC(C)(C)C)C(C)(C)C)C1Cc3ccccc3C1)C2(C)C` (stereo partly drawn) [Example 1046] and `CCCCC(NC(=O)[C@@H]1[C@@H]2[C@H](CN1C(=O)[C@@H](NC(=O)N[C@H](COC(=O)NCC)C(C)(C)C)C1Cc3ccccc3C1)C2(C)C)C(=O)C(=O)NC` (stereo partly drawn) [Example 1067] cannot be ordered by Ki: under 0.075 µM for the first, under 0.075 µM for the second.

First: C=CCNC(=O)C(=O)C(CCC(F)(F)F)NC(=O)[C@@H]1[C@@H]2[C@H](CN1C(=O)[C@@H](NC(=O)N[C@H](COC(=O)NC)C(C)(C)C)C1Cc3ccccc3C1)C2(C)C (stereo partly drawn) [Example 1047]
Second: CCCC(NC(=O)[C@@H]1[C@@H]2[C@H](CN1C(=O)[C@@H](NC(=O)N[C@H](COC(=O)NCC)C(C)(C)C)C1Cc3ccccc3C1)C2(C)C)C(=O)C(=O)NCC (stereo partly drawn) [Example 1064]
The Ki of the first is lower: under 0.075 µM for the first, 0.075 to 0.25 µM for the second. The first binds more tightly here.

`C=CCNC(=O)C(=O)C(CCC)NC(=O)[C@@H]1[C@@H]2[C@H](CN1C(=O)[C@@H](NC(=O)N[C@H](COC(=O)NC(C)C)C(C)(C)C)C1CCCC1)C2(C)C` (stereo partly drawn) [Example 1048] and `C=CCNC(=O)C(=O)C(CCC)NC(=O)[C@@H]1[C@@H]2[C@H](CN1C(=O)[C@@H](NC(=O)N[C@H](COC(=O)NC(C)C)C(C)(C)C)C1CCCCC1)C2(C)C` (stereo partly drawn) [Example 1056] cannot be ordered by Ki: under 0.075 µM for the first, under 0.075 µM for the second.

First: C=CCNC(=O)C(=O)C(CCCC)NC(=O)[C@@H]1[C@@H]2[C@H](CN1C(=O)[C@@H](NC(=O)N[C@H](COC(=O)NC(C)C)C(C)(C)C)C1CCCC1)C2(C)C (stereo partly drawn) [Example 1049]
Second: C=CCNC(=O)C(=O)C(CC1CC1)NC(=O)[C@@H]1[C@@H]2[C@H](CN1C(=O)[C@@H](NC(=O)N[C@H](COC(=O)NC(C)C)C(C)(C)C)C1CCCC1)C2(C)C (stereo partly drawn) [Example 1050]
The Ki of the first is lower: under 0.075 µM for the first, 0.075 to 0.25 µM for the second. The first binds more tightly here.

`C=CCNC(=O)C(=O)C(CCC)NC(=O)[C@@H]1[C@@H]2[C@H](CN1C(=O)[C@@H](NC(=O)N[C@H](COC(=O)N(C)C)C(C)(C)C)C(C)(C)C)C2(C)C` (stereo partly drawn) [Example 1051] and `C=CCNC(=O)C(=O)C(CCC)NC(=O)[C@@H]1[C@@H]2[C@H](CN1C(=O)[C@@H](NC(=O)N[C@H](COC(=O)NC)C(C)(C)C)C(C)(C)C)C2(C)C` (stereo partly drawn) [Example 1059] cannot be ordered by Ki: under 0.075 µM for the first, under 0.075 µM for the second.

`CN(C)C(=O)OC[C@@H](NC(=O)N[C@H](C(=O)N1C[C@H]2[C@@H]([C@H]1C(=O)NC(CC1CC1)C(=O)C(N)=O)C2(C)C)C(C)(C)C)C(C)(C)C` (stereo partly drawn) [Example 1052] and `CN(C)C(=O)OC[C@@H](NC(=O)N[C@H](C(=O)N1C[C@H]2[C@@H]([C@H]1C(=O)NC(CC1CCC1)C(=O)C(N)=O)C2(C)C)C(C)(C)C)C(C)(C)C` (stereo partly drawn) [Example 1053] cannot be ordered by Ki: under 0.075 µM for the first, under 0.075 µM for the second.

`CC(C)NC(=O)OC[C@@H](NC(=O)N[C@H](C(=O)N1C[C@H]2[C@@H]([C@H]1C(=O)NC(CC1CC1)C(=O)C(N)=O)C2(C)C)C1CCCC1)C(C)(C)C` (stereo partly drawn) [Example 1054] and `CC(C)NC(=O)OC[C@@H](NC(=O)N[C@H](C(=O)N1C[C@H]2[C@@H]([C@H]1C(=O)NC(CC1CCC1)C(=O)C(N)=O)C2(C)C)C1CCCC1)C(C)(C)C` (stereo partly drawn) [Example 1055] cannot be ordered by Ki: under 0.075 µM for the first, under 0.075 µM for the second.

`C=CCNC(=O)C(=O)C(CCC)NC(=O)[C@@H]1[C@@H]2[C@H](CN1C(=O)[C@@H](NC(=O)N[C@H](COC(=O)NC(C)(C)C)C(C)(C)C)C1CCCCC1)C2(C)C` (stereo partly drawn) [Example 1057] and `C=CCNC(=O)C(=O)C(CCC)NC(=O)[C@@H]1[C@@H]2[C@H](CN1C(=O)[C@@H](NC(=O)N[C@H](COC(=O)NCC)C(C)(C)C)C1CCCCC1)C2(C)C` (stereo partly drawn) [Example 1058] cannot be ordered by Ki: under 0.075 µM for the first, under 0.075 µM for the second.

`CNC(=O)OC[C@@H](NC(=O)N[C@H](C(=O)N1C[C@H]2[C@@H]([C@H]1C(=O)NC(CC1CC1)C(=O)C(N)=O)C2(C)C)C(C)(C)C)C(C)(C)C` (stereo partly drawn) [Example 1060] and `CNC(=O)OC[C@@H](NC(=O)N[C@H](C(=O)N1C[C@H]2[C@@H]([C@H]1C(=O)NC(CC1CCC1)C(=O)C(N)=O)C2(C)C)C(C)(C)C)C(C)(C)C` (stereo partly drawn) [Example 1061] cannot be ordered by Ki: under 0.075 µM for the first, under 0.075 µM for the second.

`CCCC(NC(=O)[C@@H]1[C@@H]2[C@H](CN1C(=O)[C@@H](NC(=O)N[C@H](COC(=O)NCC)C(C)(C)C)C1Cc3ccccc3C1)C2(C)C)C(=O)C(=O)NCCOC` (stereo partly drawn) [Example 1062] and `CCCCC(NC(=O)[C@@H]1[C@@H]2[C@H](CN1C(=O)[C@@H](NC(=O)N[C@H](COC(=O)NCC)C(C)(C)C)C1Cc3ccccc3C1)C2(C)C)C(=O)C(=O)NCCOC` (stereo partly drawn) [Example 1063] fall in the same range of Ki: 0.075 to 0.25 µM for the first, 0.075 to 0.25 µM for the second.

`C#CCNC(=O)C(=O)C(CCCC)NC(=O)[C@@H]1[C@@H]2[C@H](CN1C(=O)[C@@H](NC(=O)N[C@H](COC(=O)NCC)C(C)(C)C)C1Cc3ccccc3C1)C2(C)C` (stereo partly drawn) [Example 1065] and `C#CCNC(=O)C(=O)C(CCC)NC(=O)[C@@H]1[C@@H]2[C@H](CN1C(=O)[C@@H](NC(=O)N[C@H](COC(=O)NCC)C(C)(C)C)C1Cc3ccccc3C1)C2(C)C` (stereo partly drawn) [Example 1066] cannot be ordered by Ki: under 0.075 µM for the first, under 0.075 µM for the second.

`CCCCC(NC(=O)[C@@H]1[C@@H]2[C@H](CN1C(=O)[C@@H](NC(=O)N[C@H](COC(=O)NCC)C(C)(C)C)C1Cc3ccccc3C1)C2(C)C)C(=O)C(=O)NCCC` (stereo partly drawn) [Example 1068] and `CCCCC(NC(=O)[C@@H]1[C@@H]2[C@H](CN1C(=O)[C@@H](NC(=O)N[C@H](COC(=O)NC(C)C)C(C)(C)C)C1Cc3ccccc3C1)C2(C)C)C(=O)C(=O)NCCOC` (stereo partly drawn) [Example 1069] fall in the same range of Ki: 0.075 to 0.25 µM for the first, 0.075 to 0.25 µM for the second.

`CCCCC(NC(=O)[C@@H]1[C@@H]2[C@H](CN1C(=O)[C@@H](NC(=O)N[C@H](COC(=O)NC(C)C)C(C)(C)C)C1Cc3ccccc3C1)C2(C)C)C(=O)C(=O)NC` (stereo partly drawn) [Example 1072] was tested, and the Ki was under 0.075 µM.

same assay, conditions: Table 6, numeric Ki*

For `C=CCNC(=O)C(=O)C(CCC)NC(=O)[C@@H]1[C@@H]2[C@H](CN1C(=O)[C@@H](NC(=O)N[C@H](COC(=O)NC(C)C)C(C)(C)C)C1CCCCC1)C2(C)C` (stereo partly drawn) [Example 1056], the Ki was 0.03 µM.

Source: patent US7425576B2, “Compounds as inhibitors of hepatitis C virus NS3 serine protease” (Schering Corporation, priority 2004, dated 2008)
